Read-outs that look alike come from different tables or passages of the source.
Legend:
[1] = tested on: human HT-29 colon, MDA-MB-231 breast, and OVCAR3 ovarian cancer, and MDA-MB-435 melanoma cells
[2] = tested on: human HT-29 colon, MDA-MB-231 breast, and OVCAR3 ovarian cancer, and MDA-MB-435 melanoma cells; assay: Cytotoxicity toward all four cell lines tested; details: HT-29, MDA-MB-231, OVCAR3, MDA-MB-435

Structure (SMILES)	cytotoxicity against all cell lines (in words) [1]	cytotoxicity against all cell lines (in words) [2]
C[C@]12[C@H](O)CC3=C(CC[C@@H]4C[C@@H](O)CC[C@]34C)[C@H]1CC[C@@H]2C1=CC(=O)OC1 [compound 6, (+)-8(9)-β-Anhydrodigoxigenin]	no discernible activity	
C[C@H]1O[C@@H](O[C@H]2[C@@H](O)C[C@H](O[C@H]3[C@@H](O)C[C@H](O[C@H]4CC[C@@]5(C)[C@H](CC[C@@H]6[C@@H]5C[C@@H](O)[C@]5(C)[C@H]([C@@H]7CC(=O)O[C@@H]7O)CC[C@]65O)C4)O[C@@H]3C)O[C@@H]2C)C[C@H](O)[C@@H]1O [compound 7, (+)-17-epi-20,22-Dihydro-21α-hydroxydigoxin]		no discernible activity
